This is an account of results in publication PMC12136788.

The list shows a part of the results.

The chains are these.
B1: chr1:109605286:109605287:-_ENSG00000197780_ENST00000461096|hu_mus|hu_hu_hu_mus_True|8_8 (ssRNA)
RNA: GGGAGUUCUACAGUCCGACGAUCAAGUUUCAGAGUAACAUUCAGUAACCUCUUUAAAUGCAAUUAUCCUUAUUAUAAGCUAAGCAGAAUAAUAAUUUAAUACCGUAAGUGAACUACACACAAAGCCGUGUAUUCAGAAAUGGUCAACAGAGGAUUGAGCAUCA
B2: chr5:50689391:50689392:+_ENSG00000016082_ENST00000230658|hu_hu|FALSE|FALSE (ssRNA)
RNA: GGGAGUUCUACAGUCCGACGAUCAAUAGGACUGGCUACCAUGCUGUUAGGUGUAUCUGGAAGUUGAGAGGACAUUGAUGCUACUUCACUGCCAGUGGAAUUAGAGCCCGGUCCUCCUUCUGAAAAAUUGACCAGUUGCUGAAACAACAGAGGAUUGAGCAUCA
B3: chr10:92717539:92717540:-_ENSMUSG00000008398_ENSMUST00000008542|mus_mus|motif|central (ssRNA)
RNA: GGGAGUUCUACAGUCCGACGAUCCUGGAAAAGUGUGUUCGGCCCUUGCAGCCUGGCAGGACUCAGUGGGGCGACAGGACGGAGGCUGCUCCAGAAGUGUAUGCUGGGCAGCAGCGGACUCGAGGCCAGAAACAGUCCACUUGGCAACAGAGGAUUGAGCAUCA
B4: chr2:230668852:230668853:-_ENSG00000153827_ENST00000389045|hu_hu|motif|central (ssRNA)
RNA: GGGAGUUCUACAGUCCGACGAUCUAUCCUAAGAAUUGCUCUAAGGCACUUAUGUCUGACCGCAGGUCCUGCUGAGGAACGGUACACUUCAUAAAGAACACCAAAUAAUGUCUUAAUAAAAGACUUAGCCAGUUCCGGAUCCUCCAACAGAGGAUUGAGCAUCA
B5: chr9:79619141:79619142:-_ENSMUSG00000032328_ENSMUST00000034878|mus_mus|FALSE|FALSE (ssRNA)
RNA: GGGAGUUCUACAGUCCGACGAUCAAAUUAAAUGGUGAUGUCAGCAGUGUUACUACUGUUUCUAUAUUUAUGAUUAAUUACUAGCAGUACAACUCCCAGAAGGAAAGAGAUGGAUCCAAUAGUGAUGUAAGCAAUUCCCAAAAACAACAGAGGAUUGAGCAUCA
B6: chr8:3496845:3496846:+_ENSMUSG00000047264_ENSMUST00000061508|mus_hu|FALSE|FALSE (ssRNA)
RNA: GGGAGUUCUACAGUCCGACGAUCAGUAGGGCUGGGGGUGGAUCUGGAGCCGGGGAGGGGUUUGGAGCUGGGAUCCGGCAGAGUGCCCGGCCCAGAGCCAGGGUCAGGGUUGCGGCCAGAGCUGGUGCCAGGGCUGAGGCCCAACAACAGAGGAUUGAGCAUCA
B7: chr2:31472812:31472813:+_ENSMUSG00000026843_ENSMUST00000055244|mus_hu|FALSE|FALSE (ssRNA)
RNA: GGGAGUUCUACAGUCCGACGAUCUCAGUACAUUUCAAACGGAAUGUCCCUCAGGUCAAUUAGAAAUGCAAGAAAAAAUAGCUUCAAUUCCGUUUUUUUUCCUUUAAAAAUACAUGUUAUCUGUACAAGAUACACUACAGUAAACAACAGAGGAUUGAGCAUCA
B8: chr5:10264876:10264877:+_ENSG00000150753_ENST00000503026|hu_mus|FALSE|FALSE (ssRNA)
RNA: GGGAGUUCUACAGUCCGACGAUCGUAACUGCAGACGCAGCACAACAGACACACCCUUUAUUUAGUCACAGUGGUAAAUGGUACAGUUUAUUCUUCAGAUUCUCCAGGCUUACGGAUGUCAUCAAUCUUCAGAAUCAUCCUAACCAACAGAGGAUUGAGCAUCA
B9: chr7:134094464:134094465:+_ENSMUSG00000030683_ENSMUST00000106335|mus_mus|FALSE|FALSE (ssRNA)
RNA: GGGAGUUCUACAGUCCGACGAUCCUCGCUGUCACUUUCCCUCUGCGUCCUUUUAUCUUUUCCUUUAAUUUUGCUUUCCUGCUAAGGGUCGGCAAAGGAAGGCAAAUUUUCUUCCUUUGGGAUGGAGAAGCAGAAUUGGCCUAGCAACAGAGGAUUGAGCAUCA
B10: chr9:70551142:70551143:+_ENSMUSG00000054693_ENSMUST00000067880|mus_hu|FALSE|FALSE (ssRNA)
RNA: GGGAGUUCUACAGUCCGACGAUCACGCUGGUGUUUUUGGUGUAAUGAAUCCACAUUGUAAGAUAAUCCUUCAUAAUGUCUGAUAUAUUUAUUUAAAGGAUUCCCAUACUGACCUCCCAUCCCCGCCGCCCAGGAGAGGAGCAGCAACAGAGGAUUGAGCAUCA
B11: chrX:39630310:39630311:+_ENSMUSG00000025862_ENSMUST00000069619|mus_hu|FALSE|FALSE (ssRNA)
RNA: GGGAGUUCUACAGUCCGACGAUCAACAUACAACAUACUGUAGGUUUAUUUUUAUUCAAAAAGUUACUGUCUCAAGACAUAAAUACAAAUCAGAAAACAGUACAAUUAGGACAAUAGAAUGUGGAGGACAACAGGUUAGAGUAACAACAGAGGAUUGAGCAUCA
B12: chr18:33747085:33747086:+_ENSG00000134759_ENST00000351393|hu_hu|FALSE|FALSE (ssRNA)
RNA: GGGAGUUCUACAGUCCGACGAUCAGACCAAAUAAUUCUACUGUGCACAGAAGUAAUUUUGUUGGUGAAGGCAAAAAGACUAAAAACUGGCUCGAACUCAGGUGAGAUUGUAUCCUGCUUUUUCCACAAUGACCAGGUUCGAUCCAACAGAGGAUUGAGCAUCA
B13: chr6:38652254:38652255:-_ENSG00000124767_ENST00000373365|hu_mus|FALSE|FALSE (ssRNA)
RNA: GGGAGUUCUACAGUCCGACGAUCCGAGAACUUCAUAGCAGGGAAGUCAAGCUUCUGCAGGAGGGUCAGUCCAAGAACCCUCGUAUAAAAAUCCAGGGACUUCUUAGGAUCCUUAAUUCUUAGCAUCGUUUGCUGCAGUAGAAACAACAGAGGAUUGAGCAUCA
B14: chr7:54825262:54825263:-_ENSG00000132432_ENST00000352861|hu_hu|hu_hu_hu_mus_False|18_98 (ssRNA)
RNA: GGGAGUUCUACAGUCCGACGAUCCUGCCGGCUGGGCACAAACUGCAGCAUUACCUGAUCCAUGUUUGUUGGAUGGCGGAUUGAGAGCGUAGAGACACGUAGCUCAGGAGAGAACCGGAUGGAGGCCAACCGGAAGCUGGCAACCAACAGAGGAUUGAGCAUCA

The assay deals with T1, UNK ZnF1-3 (human, UniProt Q9C0B0 31-174).
T1 sequence: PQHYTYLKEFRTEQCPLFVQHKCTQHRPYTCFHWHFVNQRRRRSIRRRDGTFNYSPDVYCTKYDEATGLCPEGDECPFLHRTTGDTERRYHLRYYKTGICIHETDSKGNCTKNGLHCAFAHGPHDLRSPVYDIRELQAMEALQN
Nature of the assay: nsRBNS (natural sequence RNA bind-n-seq); RBNS binding buffer (assumed for nsRBNS): 25 mM Tris pH 7.5, 150 mM KCl, 3 mM MgCl2, 0.01% Triton X-100, 500 ug/ml BSA, 20 U/ml SUPERase-In, 4 C; UNK is unkempt and MSI1 is Musashi-1; names of the RNAs are library labels; protein concentration not given here; high values mean tight binding.
Molecule B1 had a binding signal of 0.551 enrichment R.

On to B2, for which the binding signal was found to be 1.53 enrichment R. For B3, the binding signal amounted to 1.3 enrichment R. The molecule B4 yielded a binding signal of 1.1 enrichment R.

Turning to B5, the binding signal turned out to be 1.51 enrichment R. Consider B6, for which the binding signal is 1.62 enrichment R.

In turn, B7 displayed a binding signal of 0.767 enrichment R.

As for B8, the binding signal is 1.36 enrichment R. In turn, B9 registered a binding signal of 0.644 enrichment R.

B10 returned a binding signal of 1.25 enrichment R.

Take B11: the binding signal was determined as 1.97 enrichment R. In the case of B12, the binding signal came out at 1.9 enrichment R.

As to B13, the binding signal is 0.863 enrichment R. The result for B14 reads 2.13 enrichment R.
